# Measured values from the supplement of paper PMC8728848.
# Some of the results follow.
# Tests used:
# Assay in all cases: glycan array binding signal (z-score within array); higher = stronger binding
# Conditions in all cases: glycan notation: IUPAC condensed, linker removed; mutation: K348A
# [1] = molecular target: Gal(b1-2)Gal
# Summary of the method: (§1)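 Arrays were curated from the Consortium for Functional Glycomics database, 3228 in total, and kept only where the protein sequence was available. Binding is expressed as a within-array Z-score. This score was averaged across arrays of the same protein sequence at different concentrations or buffers and across linkers, and negative values can be read as non-binding.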
# [2] = molecular target: Gal(b1-3)Gal
# Summary of the method: as §1
# [3] = molecular target: Gal(b1-3)Gal(b1-4)GlcNAc
# Summary of the method: as §1
# [4] = molecular target: Gal(b1-3)GalNAc
# Summary of the method: as §1
# [5] = molecular target: Gal(b1-3)GalNAc(b1-3)Gal(a1-4)Gal(b1-4)Glc
# Summary of the method: as §1
# [6] = molecular target: Gal(b1-3)GalNAc(b1-4)Gal(b1-4)Glc
# Summary of the method: as §1
# [7] = molecular target: Gal(b1-3)GalNAc(b1-4)[Neu5Ac(a2-3)]Gal(b1-4)Glc
# Summary of the method: as §1
# [8] = molecular target: Gal(b1-3)GlcNAc
# Summary of the method: as §1
# [9] = molecular target: Gal(b1-3)GlcNAc(b1-2)Man(a1-3)[Gal(b1-3)GlcNAc(b1-2)Man(a1-6)]Man(b1-4)GlcNAc(b1-4)GlcNAc
# Summary of the method: as §1
# [10] = molecular target: Gal(b1-3)GlcNAc(b1-3)Gal(b1-3)GlcNAc
# Summary of the method: as §1
# [11] = molecular target: Gal(b1-3)GlcNAc(b1-3)Gal(b1-4)Glc
# Summary of the method: as §1
# [12] = molecular target: Gal(b1-3)GlcNAc(b1-3)Gal(b1-4)GlcNAc
# Summary of the method: as §1
# [13] = molecular target: Gal(b1-3)[Fuc(a1-4)]GlcNAc
# Summary of the method: as §1
# [14] = molecular target: Gal(b1-3)[Fuc(a1-4)]GlcNAc(b1-3)Gal(b1-3)[Fuc(a1-4)]GlcNAc
# Summary of the method: as §1
# [15] = molecular target: Gal(b1-3)[Fuc(a1-4)]GlcNAc(b1-3)Gal(b1-4)GlcNAc
# Summary of the method: as §1
# [16] = molecular target: Gal(b1-3)[Fuc(a1-4)]GlcNAc(b1-3)Gal(b1-4)[Fuc(a1-3)]GlcNAc
# Summary of the method: as §1
# [17] = molecular target: Gal(b1-3)[GlcNAc(b1-6)]GalNAc
# Summary of the method: as §1
# [18] = molecular target: Gal(b1-3)[Neu5Ac(a2-6)]GalNAc
# Summary of the method: as §1
# [19] = molecular target: Gal(b1-3)[Neu5Ac(a2-6)]GlcNAc(b1-6)Gal(b1-4)Glc
# Summary of the method: as §1
# [20] = molecular target: Gal(b1-3)[Neu5Ac(b2-6)]GalNAc
# Summary of the method: as §1
# [21] = molecular target: Gal(b1-4)GalNAc(a1-3)[Fuc(a1-2)]Gal(b1-4)GlcNAc
# Summary of the method: as §1
# [22] = molecular target: Gal(b1-4)GalNAc(b1-3)[Fuc(a1-2)]Gal(b1-4)GlcNAc
# Summary of the method: as §1
# [23] = molecular target: Gal(b1-4)Glc
# Summary of the method: as §1
# [24] = molecular target: Gal(b1-4)Glc6S
# Summary of the method: as §1
# [25] = molecular target: Gal(b1-4)GlcNAc
# Summary of the method: as §1
# [26] = molecular target: Gal(b1-4)GlcNAc(a1-6)Gal(b1-4)GlcNAc
# Summary of the method: as §1
# [27] = molecular target: Gal(b1-4)GlcNAc(b1-2)Man(a1-3)[Gal(b1-4)GlcNAc(b1-2)Man(a1-6)]Man(b1-4)GlcNAc(b1-4)GlcNAc
# Summary of the method: as §1
# [28] = molecular target: Gal(b1-4)GlcNAc(b1-3)Gal(b1-3)GlcNAc
# Summary of the method: as §1
# [29] = molecular target: Gal(b1-4)GlcNAc(b1-3)Gal(b1-4)Glc
# Summary of the method: as §1
# [30] = molecular target: Gal(b1-4)GlcNAc(b1-3)Gal(b1-4)GlcNAc
# Summary of the method: as §1
binder,measurement,setting,value
Surfactant Protein D (Human); Neck + Carbohydrate Recognition Domain (NCRD) (Homo sapiens) (protein) MLLFLLSALVLLTQPLGYLEAEMKTYSHRTMPSACTLVMCSSVESGLPGRDRDGREGPRGEKGDPGLPGAAGQAGMPGQAGPVGPKGDNGSVGEPGPKGDTGPSGPPGPPGVPGPAGREGALGKQGNIGPQGKPGPKGEAGPKGEVGAPGMQGSAGARGLAGPKGERGVPGERGVPGNTGAAGSAGAMGPQGSPGARGPPGLKGDKGIPGDKGAKGESGLPDVASLRQQVEALQGQVQHLQAAFSQYKKVELFPNGQSVGEKIFKTAQFVKPFTEAQLLCTQAGGQLASPRSAAENAALQQLVVAKNEAAFLSMTDSKTEGKFTYPTGESLVYSNWAPGEPNDDGGSEDCVEIFTNGKWNDRACGEARLVVCEF,glycan array binding signal (z-score),[1],-0.167
same,glycan array binding signal (z-score),[2],-0.175
same,glycan array binding signal (z-score),[3],-0.174
same,glycan array binding signal (z-score),[4],-0.174
same,glycan array binding signal (z-score),[5],-0.165
same,glycan array binding signal (z-score),[6],-0.177
same,glycan array binding signal (z-score),[7],-0.177
same,glycan array binding signal (z-score),[8],-0.156
same,glycan array binding signal (z-score),[9],-0.178
same,glycan array binding signal (z-score),[10],-0.161
same,glycan array binding signal (z-score),[11],-0.166
same,glycan array binding signal (z-score),[12],-0.168
same,glycan array binding signal (z-score),[13],-0.165
same,glycan array binding signal (z-score),[14],-0.159
same,glycan array binding signal (z-score),[15],-0.17
same,glycan array binding signal (z-score),[16],-0.152
same,glycan array binding signal (z-score),[17],-0.15
same,glycan array binding signal (z-score),[18],-0.178
same,glycan array binding signal (z-score),[19],-0.165
same,glycan array binding signal (z-score),[20],-0.09
same,glycan array binding signal (z-score),[21],-0.175
same,glycan array binding signal (z-score),[22],-0.135
same,glycan array binding signal (z-score),[23],-0.169
same,glycan array binding signal (z-score),[24],-0.15
same,glycan array binding signal (z-score),[25],-0.163
same,glycan array binding signal (z-score),[26],-0.176
same,glycan array binding signal (z-score),[27],-0.164
same,glycan array binding signal (z-score),[28],-0.172
same,glycan array binding signal (z-score),[29],-0.157
same,glycan array binding signal (z-score),[30],-0.164
